# Measurements from the RNAGym collection of RNA variant scans (doi:10.7554/elife.90254).
# Read counts are not given, so values of variants with three or more changes are uncertain.
# B1: OR4K15 (parent)
# chain: GUUAACGGUCAUAGGCCAUGGAAACUAGGAGCACCAUUUCGCUGCCAGUGAAGAAAUGAACAAAGAAAAUCUGGGCCAGGCAGGCAUCAAAAGAAAUAGUCUUGCGCUCAACCAGAAAGUCUGUAAUCAUUUUAAGGGUA
# Variants of: B1
# Assay: self-cleavage, relative activity (ratio to wild type); higher = more cleavage; in vitro, sequencing; the parent is a self-cleaving ribozyme
row,Variant,self-cleavage
1,GUUAACGGUCAUAGGCCAUGGAAGCUAGGAGCACCAUUUCGCUGCCAGUGAAGAAAUGAACAAAGAAAAUCUGGGCCAGGCUGGCAUCAAAGGAAAUAGUCUUGCGCUCAACCAGAGAGUCUGUAAUCAUUUUAAGGGUA,0.18
2,GUUAACGGUCAUAGGCCAUGGAAGCUAGGAGCACCAUUUCGCUGCCAGUGAAGAAAUGAACAAAGAAAAUCUGGGCCAGGCAGGCAUCAAAGGAAAUAGUCUUGCGCUCAACCAGAAAGUCUGUAAUCAUUUUAAGGGUU,1.65
3,GUUAACGGUCAUAGGCCAUGGAAGCUAGGAGCACCAUUUCGCUGCCAGUGAAGAAAUGAACAAAGAAAAUCUGGGCCAGGCAGGCAUCAAAAGAAGUAGUCUUGCGCUCAACCAGAAAGUCCGUAAUCAUUUUAAGGGUA,0.87
4,GUUAACGGUCAUAGGCCAUGGAAGCUAGGAGCACCAUUUCGCUGCCAGUGAAGAAAUGAACAAAGAAAAUCUGGGCCGGGCAGGCAUCAAAAGAAAUAGUCUUGCGCUCAACCAGAAAGUCUGCAAUCAUUUUAAGGGUA,0.06
5,GUUAACGGUCAUAGGCCAUGGAAGCUAGGAGCACCAUUUCGCUGCCAGUGAAGAAAUGAACAAAGAAUAUCUGGGCCAGGCGGGCAUCAAAAGAAAUAGUCUUGCGCUCAACCAGAGAGUCUGUAAUCAUUUCAAGGGUA,0.77
6,GUUAACGGUCAUAGGCCAUGGAAGCUAGGAGCACCAUUUCGCUGCCAGUGAAGAAAUGAACAAAGAAAAUCUGGGCCAGGCAGGCAUCAAAAGAAAUGGUCUUGCGCUCAACCAGGAAGUCUGAAAUCAUUUUAAGGGUA,0.5
7,GUUAACGGUCAUAGGCCAUGGAAGCUAGGAGCACCAUUUCGCUGCCAGUGAAGAAAUGAACAAAGAAAAUCUGGGCCAGGCAGGCAUCGAAAGAAAUAGUCUUGCGCUCAACCAGAAAGUCUGUAAUCAUUUUAAUGGUA,1.34
8,GUUAACGGUCAUAGGCCAUGGAAGCUAGGAGCACCAUUUCGCUGCCAGUGAAGAAAUGAACAAAGAAAGUCUGGGCCAGGCAGGCAUCAAAAGAAAUAGUCUUGCGCUCAACCAGAAAGUCUGAAAUCAUUUUAAGGGUA,1.13
9,GUUAACGGUCAUAGGCCAUGGAAGCUAGGAGCACCAUUUCGCUGCCAGUGAAGAAAUGAACAAAGAAAAUCUGGGCCUGGCAGGCAUCAAAAGAAAUAGUCUUGCGCUCAACCAGAAAGUCUGUAAUCACUUUAAGGGUA,0.11
10,GUUAACGGUCAUAGGCCAUGGAAGCUAGGAGCACCAUUUCGCUGCCAGUGAAGAAAUGAACAAAGAAAAUCUGGGCCGGGCGGGCAUCAAAAGAAAUAGUCAUGCGCUCAACCAGAAAGUCUGUAAUCAUUUUAAGGGUA,0.19
11,GUUAACGGUCAUAGGCCAUGGAAGCUAGGAGCACCAUUUCGCUGCCAGUGAAGAAAUGAACAAAGAAAGUCUGAGCCGGGCAGGCAUCAAAAGAAAUAGUCUUGCGCUCAACCAGAAAGUCUGUAAUCAUUUUAAGGGUA,0.27
12,GUUAACGGUCAUAGGCCAUGGAAGCUAGGAGCACCAUUUCGCUGCCAGUGAAGAAAUGAACAAAGAAAAUCUGGGCCAGGCAGGCAUCCAAAGAAAUAGUCUUGCGCUCGGCCAGAAAGUCUGUAAUCAUUUUAAGGGUA,0.17
13,GUUAACGGUCAUAGGCCAUGGAAGCUAGGAGCACCAUUUCGCUGCCAGUGAAGAAAUGAACAAAGAAAAUCUGGGCCAGGCAGGCAUCAAGAGAAAUAGUCUUGCGCUCAACCAGAAAGUCUGUAGUCAUUUUAAGGGUA,0.54
14,GUUAACGGUCAUAGGCCAUGGAAGCUAGGAGCACCAUUUCGCUGCCAGUGAAGAAAUGAACAAAGAAAAUCUGGGCCAGGCAGGCAUCAAAAGGAAUAGUCUUGCGCUCAACCGGGAAGUCUGUAAUCAUUUUAAGGGUA,0.06
15,GUUAACGGUCAUAGGCCAUGGAAGCUAGGAGCACCAUUUCGCUGCCAGUGAAGAAAUGAACAAAGAAAAUCUGGGCCAGGCAGGCAUCAUGAGAAAUAGUCUCGCGCUCAACCAGAAAGUCUGUAAUCAUUUUAAGGGUA,0.95
16,GUUAACGGUCAUAGGCCAUGGAAGCUAGGAGCACCAUUUCGCUGCCAGUGAAGAAAUGAACAAAGAAAAUCUGGGCCAGGCAGGCAUCAAAAGUAAUAGUCUUGCGCUCAACCAGAAAGUCUGUAAUCAUUUUAGGGGUA,0.83
17,GUUAACGGUCAUAGGCCAUGGAAGCUAGGAGCACCAUUUCGCUGCCAGUGAAGAAAUGAACAAAGAAAAUCUGGGCCAGGCGGGCAUCAAAGGAAAUAGUCUUGCGCUCAACCAGAAAGUCUGUAACCAUUUUAAGGGUA,0.16
18,GUUAACGGUCAUAGGCCAUGGAAGCUAGGAGCACCAUUUCGCUGCCAGUGAAGAAAUGAACAAAGAAAAUCUGGGCCAGGCGGGCAACAAAAGAAAUAGUCUUGCGCUCAACCAGAAAGUCUGUAAUCACUUUAAGGGUA,0.14
19,GUUAACGGUCAUAGGCCAUGGAAGCUAGGAGCACCAUUUCGCUGCCAGUGAAGAAAUGAACAAAGAAAAUCUGGGCCAGGCAGGCAUCAAAAGGAAUAGUCUUGCGCUCAGCCAGAAAGUCUGUAAUCAUUUUAAGGGUA,0.01
20,GUUAACGGUCAUAGGCCAUGGAAGCUAGGAGCACCAUUUCGCUGCCAGUGAAGAAAUGAACAAAGAAAAUCUGGGCCAGGCAGGCAUCAAGAGAAAUAGUCUUGCGCUCAACCAGGAAGUCUGUAAUCAUUUUAAGGGUA,1.03
21,GUUAACGGUCAUAGGCCAUGGAAGCUAGGAGCACCAUUUCGCUGCCAGUGAAGAAAUGAACAAAGAAAAUCUGGGCCGGGCAGGCAUCAAUAGAAAUAGUCUUGCGCUCAACCAGAAAGUCUGUAAUCAUUUUAAGGGUG,0.14
